These results are taken from paper PMC12820563, “FoxP3 forms a head-to-head dimer in vivo and stabilizes its multimerization on adjacent microsatellites”.

The other results are listed elsewhere or left out.

The target of the assay is T1, MBP-FoxP1dN (Mus musculus, UniProt P58462 326-579).
T1 sequence: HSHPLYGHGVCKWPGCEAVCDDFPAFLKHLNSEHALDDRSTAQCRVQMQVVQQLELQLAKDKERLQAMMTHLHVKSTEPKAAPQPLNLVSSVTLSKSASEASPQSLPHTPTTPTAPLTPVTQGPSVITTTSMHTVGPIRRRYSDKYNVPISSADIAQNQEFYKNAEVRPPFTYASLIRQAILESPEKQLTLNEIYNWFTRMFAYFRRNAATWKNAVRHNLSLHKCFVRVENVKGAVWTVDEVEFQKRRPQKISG
The assay is described as follows: PD-seq (MBP pull-down with sequencing); 20 mM Tris-HCl pH 7.5, 100 mM NaCl, 1.5 mM MgCl2, 0.4 uM protein, 0.1 uM dsDNA library, 30 min, room temperature, amylose pull-down; high values mean tight binding. Conditions: protein: recombinant; tags: His6-MBP; chain copies: 2; dsDNA, one strand shown. In outline:
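A degenerate double-stranded DNA library, filled in with Klenow, was added at 0.1 µM to 0.4 µM His6-MBP-tagged mouse FoxP3 or FoxP1 fragment lacking the N-terminus, expressed in E. coli. Incubation lasted 30 min at room temperature in Tris pH 7.5 buffer with NaCl and MgCl2, after which complexes were collected on amylose resin, washed three times, digested with proteinase K to free the DNA, barcoded by PCR and sequenced by Illumina. Binding is the pooled-replicate reads-per-million enrichment of pull-down over input.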
As to “GATGATTGTTCTCCCAGCTGATGAATTTTTATTATCGAGTAAACAAATTTTCCTAATCTTTCTGTTCAAGCGCCATCTAC”, the binding signal was 2.02 RPM ratio (pull-down/input). For “GATGATTGTTCTCCCAGCTGATGAATTTTGCCGGTCGAGTAAACAAATTTTCCTAATCTTTCTGTTCAAGCGCCATCTAC”, the binding signal is 0.746 RPM ratio (pull-down/input). Take “GATGATTGTTCTCCCAGCTGATGAATTGACCCAATCGAGTAAACAAATTTTCCTAATCTTTCTGTTCAAGCGCCATCTAC”: the binding signal is 1.06 RPM ratio (pull-down/input).

“GATGATTGTTCTCCCAGCTGATGAATTTAGAGCCTCGAGTAAACAAATTTTCCTAATCTTTCTGTTCAAGCGCCATCTAC”: the binding signal is 0.87 RPM ratio (pull-down/input). Take “GATGATTGTTCTCCCAGCTGATGAATTTCAAGCCTCGAGTAAACAAATTTTCCTAATCTTTCTGTTCAAGCGCCATCTAC”: the binding signal was 0.827 RPM ratio (pull-down/input).

Regarding “GATGATTGTTCTCCCAGCTGATGAATTCGGGAACTCGAGTAAACAAATTTTCCTAATCTTTCTGTTCAAGCGCCATCTAC”, the binding signal is 0.774 RPM ratio (pull-down/input). Turning to “GATGATTGTTCTCCCAGCTGATGAATTCGGTCAGTCGAGTAAACAAATTTTCCTAATCTTTCTGTTCAAGCGCCATCTAC”, the binding signal is 0.816 RPM ratio (pull-down/input). Take “GATGATTGTTCTCCCAGCTGATGAATTTCGATACTCGAGTAAACAAATTTTCCTAATCTTTCTGTTCAAGCGCCATCTAC”: the binding signal is 0.916 RPM ratio (pull-down/input).

Regarding “GATGATTGTTCTCCCAGCTGATGAATTCCCACCGTCGAGTAAACAAATTTTCCTAATCTTTCTGTTCAAGCGCCATCTAC”, the binding signal is 0.829 RPM ratio (pull-down/input). Then “GATGATTGTTCTCCCAGCTGATGAATTAAAAAACTCGAGTAAACAAATTTTCCTAATCTTTCTGTTCAAGCGCCATCTAC”, with 0.953 RPM ratio (pull-down/input). “GATGATTGTTCTCCCAGCTGATGAATTGTCTTAATCGAGTAAACAAATTTTCCTAATCTTTCTGTTCAAGCGCCATCTAC”: the binding signal was 1.13 RPM ratio (pull-down/input). On to “GATGATTGTTCTCCCAGCTGATGAATTGCACTGATCGAGTAAACAAATTTTCCTAATCTTTCTGTTCAAGCGCCATCTAC”, for which the binding signal is 1.08 RPM ratio (pull-down/input). To “GATGATTGTTCTCCCAGCTGATGAATTTTCACAATCGAGTAAACAAATTTTCCTAATCTTTCTGTTCAAGCGCCATCTAC” belongs 1.29 RPM ratio (pull-down/input); to “GATGATTGTTCTCCCAGCTGATGAATTGAAGCTTTCGAGTAAACAAATTTTCCTAATCTTTCTGTTCAAGCGCCATCTAC”, 0.876 RPM ratio (pull-down/input); to “GATGATTGTTCTCCCAGCTGATGAATTGTGTGCGTCGAGTAAACAAATTTTCCTAATCTTTCTGTTCAAGCGCCATCTAC”, 1.22 RPM ratio (pull-down/input). To “GATGATTGTTCTCCCAGCTGATGAATTTTCGGGCTCGAGTAAACAAATTTTCCTAATCTTTCTGTTCAAGCGCCATCTAC” belongs 0.781 RPM ratio (pull-down/input); to “GATGATTGTTCTCCCAGCTGATGAATTGAAGAACTCGAGTAAACAAATTTTCCTAATCTTTCTGTTCAAGCGCCATCTAC”, 0.822 RPM ratio (pull-down/input). To “GATGATTGTTCTCCCAGCTGATGAATTTGAACGTTCGAGTAAACAAATTTTCCTAATCTTTCTGTTCAAGCGCCATCTAC” belongs 0.841 RPM ratio (pull-down/input); to “GATGATTGTTCTCCCAGCTGATGAATTGGGTTATTCGAGTAAACAAATTTTCCTAATCTTTCTGTTCAAGCGCCATCTAC”, 0.925 RPM ratio (pull-down/input).

“GATGATTGTTCTCCCAGCTGATGAATTGCCTACGTCGAGTAAACAAATTTTCCTAATCTTTCTGTTCAAGCGCCATCTAC”: the binding signal was 0.991 RPM ratio (pull-down/input). With “GATGATTGTTCTCCCAGCTGATGAATTAGGTAGGTCGAGTAAACAAATTTTCCTAATCTTTCTGTTCAAGCGCCATCTAC”, the binding signal is 0.851 RPM ratio (pull-down/input). Then “GATGATTGTTCTCCCAGCTGATGAATTTTGTGTATCGAGTAAACAAATTTTCCTAATCTTTCTGTTCAAGCGCCATCTAC”, with 2.15 RPM ratio (pull-down/input); and “GATGATTGTTCTCCCAGCTGATGAATTTCAAGGGTCGAGTAAACAAATTTTCCTAATCTTTCTGTTCAAGCGCCATCTAC”, with 0.748 RPM ratio (pull-down/input); and “GATGATTGTTCTCCCAGCTGATGAATTAACTGATTCGAGTAAACAAATTTTCCTAATCTTTCTGTTCAAGCGCCATCTAC”, with 0.953 RPM ratio (pull-down/input). To “GATGATTGTTCTCCCAGCTGATGAATTATGTCTTTCGAGTAAACAAATTTTCCTAATCTTTCTGTTCAAGCGCCATCTAC” belongs 1.06 RPM ratio (pull-down/input); to “GATGATTGTTCTCCCAGCTGATGAATTGCATACCTCGAGTAAACAAATTTTCCTAATCTTTCTGTTCAAGCGCCATCTAC”, 1.12 RPM ratio (pull-down/input). Then “GATGATTGTTCTCCCAGCTGATGAATTTATCACCTCGAGTAAACAAATTTTCCTAATCTTTCTGTTCAAGCGCCATCTAC”, with 1.03 RPM ratio (pull-down/input); and “GATGATTGTTCTCCCAGCTGATGAATTGCCAAGCTCGAGTAAACAAATTTTCCTAATCTTTCTGTTCAAGCGCCATCTAC”, with 0.899 RPM ratio (pull-down/input). With “GATGATTGTTCTCCCAGCTGATGAATTCCGTAGTTCGAGTAAACAAATTTTCCTAATCTTTCTGTTCAAGCGCCATCTAC”, the binding signal is 0.834 RPM ratio (pull-down/input). Then “GATGATTGTTCTCCCAGCTGATGAATTTCGGGGTTCGAGTAAACAAATTTTCCTAATCTTTCTGTTCAAGCGCCATCTAC”, with 0.791 RPM ratio (pull-down/input); and “GATGATTGTTCTCCCAGCTGATGAATTAACGAAGTCGAGTAAACAAATTTTCCTAATCTTTCTGTTCAAGCGCCATCTAC”, with 0.89 RPM ratio (pull-down/input); and “GATGATTGTTCTCCCAGCTGATGAATTATTTTCATCGAGTAAACAAATTTTCCTAATCTTTCTGTTCAAGCGCCATCTAC”, with 1.27 RPM ratio (pull-down/input).
